# In PubChem BioAssay AID330 (DTP/NCI, 2004):
# Toxic doses and inconclusive results are not listed. For part of its entries the source gives two or more results. The other results are left out here. An entry can have further records. Values given together differ, and nothing given here explains why; they may come from other doses, times, organisms or constructs than stated.
# Tested on: P388 leukemia ip, CD2F1 mice, survival T/C
# Assay: NCI In Vivo Anticancer Drug Screen. Data for tumor model P388 Leukemia (intraperitoneal) in CD2F1 (CDF1) mice
# Conditions: endpoint: median survival time, higher = longer survival
smiles,measurement,setting,value
c1cc(C2=NCCN2)ccc1Nc1ccc(-c2cc3ccc(C4=NCCN4)cc3[nH]2)cc1,T/C,"dose: 15.0 mg/kg/injection, schedule: Q01DX005 (ip), vehicle: Klucel (hydroxypropylcellulose) (HPC)",90 % of control and 186 % of control
CC1OC(OC2CC(O)(C(=O)CO)Cc3c(O)c4c(c(O)c32)C(=O)c2ccccc2C4=O)CC(N)C1O (stereo not given),T/C,"dose: 2.0 mg/kg/injection, schedule: Q04DX003 (ip), vehicle: water",117 % of control and 155 % of control
COc1cc2c(cc1O)c(O)cc1c3cc(OC)c(OC)cc3c[n+](C)c21,T/C,"dose: 100.0 mg/kg/injection, schedule: Q01DX005 (ip), vehicle: Klucel (hydroxypropylcellulose) (HPC)",107 % of control and 163 % of control
O=C(O)c1c2c(nc3ccccc13)Cc1ccccc1-2,T/C,"dose: 100.0 mg/kg/injection, schedule: Q01DX009 (ip), vehicle: saline with Tween-80",110 % of control and 150 % of control
OCC(O)CCBr (stereo not given),T/C,"dose: 400.0 mg/kg/injection, schedule: Q04DX003 (ip), vehicle: saline",110 % of control and 150 % of control
